Results taken from PubChem BioAssay AID485294 (National Center for Advancing Translational Sciences (NCATS), 2010).
Hit rate of the full screen: of about 370,000 compounds, about 150 (0.041%) were called active. Inconclusive means that the source gave no clear call. Such entries were picked first, then a sample of the others. Calls come from the whole dose curve; as a rule, active = well fitted inhibition curve with a large enough effect; inconclusive = small, poorly fitted or top-dose-only effect; inactive = flat fitted curve, though single readings scatter. Potencies of inconclusive entries are left out as doubtful fits.

Target: Beta-lactamase (Escherichia coli (strain K12)) (UniProt P00811)
Experiment: qHTS Inhibitors of AmpC Beta-Lactamase (assay with detergent); note: nearly all actives have a fitted effect of over 25% in size;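 for activity change, negative = inhibition: 0% = no-compound wells and -100% = no-enzyme wells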
Settings: AmpC hydrolysis of nitrocefin, absorbance 480 nm, 0.01% Triton; activity change, negative = inhibition: at 114 µM (top of the series)
In short: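 20 mM phosphate pH 7.0 + 0.01% (detergent screen) or 0.0001% Triton X-100; 5.3 nM AmpC reagent; cpd preinc 15 min RT; nitrocefin (800 uM stock) to start; A480 q20 s × 4 min; Activity was normalised to no-enzyme and no-compound control wells.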
Potency is the fitted concentration of half-maximal effect; tags give direction and shape of the fitted curve.

Chain of UniProt P00811 (P00811 whole entry, looked up): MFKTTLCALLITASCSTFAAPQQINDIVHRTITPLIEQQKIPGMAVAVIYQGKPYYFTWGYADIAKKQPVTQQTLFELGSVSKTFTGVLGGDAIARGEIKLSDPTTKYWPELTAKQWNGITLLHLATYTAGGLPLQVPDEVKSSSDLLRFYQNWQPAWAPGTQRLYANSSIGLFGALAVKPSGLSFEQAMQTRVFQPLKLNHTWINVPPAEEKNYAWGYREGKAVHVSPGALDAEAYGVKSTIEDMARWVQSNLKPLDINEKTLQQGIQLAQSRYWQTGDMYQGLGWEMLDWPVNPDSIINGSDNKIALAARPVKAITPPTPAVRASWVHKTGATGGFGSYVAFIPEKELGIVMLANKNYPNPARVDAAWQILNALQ

Row | Compound | Potency | activity change, negative = inhibition
1 | Cn1c(=O)c2c(-c3ccccc3)n(Cc3ccccn3)cc2n(C)c1=O | inconclusive [inhibitor, full curve, poor fit] | 
2 | COc1ccc(C)cc1S(=O)(=O)Nc1ccc2c(c1)N(C(C)=O)CCC2 | inconclusive [inhibitor, single point] | 
3 | CCCCNC(=O)/C(C#N)=C/c1ccc2c(c1)OCCO2 | inconclusive [inhibitor, partial curve] | 
4 | COc1ccccc1NC(=O)COc1ccccc1 | inconclusive [inhibitor, full curve, poor fit] | 
5 | c1csc(-n2nc3ccccc3n2)c1 | inconclusive [inhibitor, full curve, poor fit] | 
6 | COc1cccc(OCc2cc(C(=O)NCC3CCCCC3)no2)c1 | inconclusive [inhibitor, single point] | 
7 | CCOC(=O)c1ccccc1N=N/C(C(C)=O)=C(/C)O | inconclusive [inhibitor, full curve] | 
8 | Cc1nc2oc3ccc(Cl)cc3c(=O)c2cc1C(=O)O |  | inactive: -8.87%
9 | Cc1cc(C)n(C(=O)C(C)N2C(=O)c3ccccc3C2=O)n1 (centres undefined) | inconclusive [inhibitor, full curve, poor fit] | 
10 | COc1ccc(NC(=O)CN(C)C(=O)C(NC(=O)c2ccco2)C(C)C)cc1 (centres undefined) | inconclusive [inhibitor, partial curve] | 
11 | CCCc1cc(=O)oc2cc(OCC(=O)Nc3ccc(CN4CCOCC4)cc3)c(Cl)cc12 | inconclusive [inhibitor, full curve, poor fit] | 
12 | O=C1C(c2ccc(F)cc2)N(CCc2ccccc2)C(=O)CN1C1CCCCCC1 (centres undefined) |  | inactive: -5.61%
13 | Nc1nc(-c2ccc(Oc3ccccc3)cc2)cs1 |  | inactive: -7.61%
14 | CCc1c(C)nc2[nH]nc(-c3ccccc3)n2c1=O |  | inactive: -17.1%
15 | FC(F)(F)c1cccc(Cc2noc(CN3CCCCC3c3ccccn3)n2)c1 (centres undefined) |  | inactive: -9.26%
16 | Cc1c(NC(=O)CC(C)C)c(=O)n(-c2ccccc2)n1C | inconclusive [inhibitor, full curve, poor fit] | 
17 | CN1C(=O)c2ccc(NC(=O)c3cccc(N4C(=O)CCC4=O)c3)cc2C1=O |  | inactive: 3.58%
18 | O=C(NC1CCCCC1)C(c1ccc2ncccc2c1)N(Cc1ccc(F)cc1)C(=O)c1cccs1 (centres undefined) | inconclusive [inhibitor, full curve, poor fit] | 
19 | COCC(C)n1c(C)cc(C(=O)CN2C(=O)NC(Cc3c[nH]c4ccccc34)C2=O)c1C (centres undefined) |  | inactive: -4.52%
20 | COc1ccc(CC(=O)n2nc(-c3ccccc3)nc2NCc2ccco2)cc1 | inconclusive [inhibitor, full curve] | 
21 | O=C(NC1CCCN(Cc2ccc(Cl)cc2)C1)c1c(F)cccc1F (centres undefined) |  | inactive: 1.39%
22 | C#CCNC(=O)/C=C/c1ccc(OC)cc1 | inconclusive [inhibitor, full curve] | 
23 | COc1ccc(C(=O)Nc2nc(-c3nnn(-c4ccc(C(C)C)cc4)c3C)ns2)cc1 |  | inactive: -3.63%

Row | Compound | Potency | activity change, negative = inhibition
24 | COc1ccccc1CCNC(=O)C(C)Sc1nc(-c2ccccc2)cc(C(F)(F)F)n1 (centres undefined) |  | inactive: -0.575%
25 | O=C(COc1coc(CN2CCc3ccccc32)cc1=O)NCCc1ccccc1 | inconclusive [inhibitor, full curve, poor fit] | 
26 | CCC[C@@H]1C[C@@H](C(=O)N[C@@H](C2O[C@H](SC)[C@H](O)[C@@H](O)[C@H]2O)[C@H](C)Cl)N(C)C1 (some centres undefined) | inconclusive [inhibitor, full curve, poor fit] | 
27 | C=CCN1C(=O)/C(=C/c2ccc(OC)cc2)S/C1=N/c1nccs1 | inconclusive [inhibitor, partial curve] | 
28 | S=c1[nH]nc(-c2ccco2)n1C1CCCCC1 | inconclusive [inhibitor, full curve, poor fit] | 
29 | CCOc1ccc(OCC)c(S(=O)(=O)NCc2ccccc2)c1 | inconclusive [inhibitor, full curve, poor fit] | 
30 | COc1ccc(N(C(=O)C(C)C)S(=O)(=O)c2cccc3cccnc23)cc1 | inconclusive [inhibitor, partial curve] | 
31 | O=C(Nc1sc2c(c1C(=O)Nc1ccccc1)CCC2)c1ccc(Br)cc1 |  | inactive: 0.175%
32 | O=C(O)c1cc2c(N3CCC(Cc4ccccc4)CC3)ncnc2s1 | inconclusive [inhibitor, full curve, poor fit] | 
33 | Cc1cccc(NC(=O)C(=O)NCC(c2ccc3c(c2)OCO3)N2CCN(c3ccccc3)CC2)c1 (centres undefined) |  | inactive: 2.7%
34 | Cc1nn(C(=O)c2cccnc2)c(C)c1C | inconclusive [inhibitor, partial curve] | 
35 | CC(C)COc1ccc(C(=O)OCCN2CCCCC2)cc1 |  | inactive: 2.78%
36 | CCOC(=O)c1c(NC(=O)CSc2nnnn2C)sc(C)c1-c1ccc(C)cc1 | inconclusive [inhibitor, full curve, poor fit] | 
37 | COc1ccc(OC)c(-c2cc(C(=O)NCCN3CCOCC3)no2)c1 | inconclusive [inhibitor, partial curve, poor fit] | 
38 | O=C(c1cc(-c2ccc(Cl)cc2Cl)on1)N1CCN(C(=O)c2ccco2)CC1 | inconclusive [inhibitor, full curve, poor fit] | 
39 | CCN(CC)C(=O)Cc1cc(C(=O)O)c2ccccc2n1 | inconclusive [inhibitor, full curve, poor fit] | 
40 | C/C(=N\NC(=S)Nc1ccccc1C)C1Cc2ccccc2C(=O)O1 (centres undefined) |  | inactive: -2.95%
41 | O=C(OCC(=O)N1CCCC1)c1cc(F)c(F)cc1Cl |  | inactive: -7.36%
42 | COC(=O)c1c(NC(=O)C(C)C)sc2c1CCN(Cc1ccccc1)C2 | inconclusive [inhibitor, full curve, poor fit] | 
43 | Cc1nn(Cc2ccccc2Cl)c(C)c1NC(=O)Cn1nc([N+](=O)[O-])c(Cl)c1C | inconclusive [inhibitor, full curve] | 
44 | CC(=O)C1=C(c2ccccc2)NC(=S)NC1c1cc(Cl)c(OC(C)C)c(Cl)c1 (centres undefined) |  | inactive: -13.3%
45 | Cc1ccc2[nH]c(=S)cc(C)c2c1 | inconclusive [inhibitor, single point] | 
46 | CN(C)S(=O)(=O)c1ccc(C(=O)Nc2ccc3ncccc3c2)cc1 | inconclusive [inhibitor, full curve, poor fit] | 

Row | Compound | Potency | activity change, negative = inhibition
47 | COc1cc(CN2CCC(n3nccc3NC(=O)c3ccc4c(c3)OCO4)CC2)ccc1O | inconclusive [inhibitor, full curve, poor fit] | 
48 | COc1ccc(N2CC(C)Cn3c2nc2c3c(=O)n(CCN3CCOCC3)c(=O)n2C)cc1 (centres undefined) | inconclusive [inhibitor, partial curve, poor fit] | 
49 | CCOC(=O)N1CCN(C(=O)c2ccc3c(c2)sc2nc(-c4ccc(OC)cc4)cn23)CC1 |  | inactive: -2.23%
50 | CN(C(=O)CSc1nnc(COc2ccccc2)o1)c1ccccc1 |  | inactive: -10.8%
51 | CN1CC=C2C(C#N)=C(N)C(C#N)(C#N)C(c3cccc(Cl)c3Cl)C2C1 (centres undefined) | inconclusive [inhibitor, full curve, poor fit] | 
52 | COc1ccc2c(c1OC)C(=O)O[C@H]2[C@@H]1c2cc3c(cc2CCN1C)OCO3 | inconclusive [inhibitor, full curve, poor fit] | 
53 | COc1ccccc1CNC(=O)CSc1ccc(-c2sc(-c3ccccc3)nc2C)nn1 |  | inactive: -6.48%
54 | O=C1C2CCCN2C(=O)N1CCCCN1CCN(c2ccc(F)cc2)CC1 (centres undefined) | inconclusive [inhibitor, full curve, poor fit] | 
55 | O=C(/C=C/c1ccccc1[N+](=O)[O-])NCCc1ccc(F)cc1 |  | inactive: -8.65%
56 | O=C(CCn1c(=O)c2ccccc2n(CC(=O)NCCC2=CCCCC2)c1=O)NCc1ccco1 | inconclusive [inhibitor, single point] | 
57 | O=C(COc1ccccc1)Nc1cccc(-c2nnc(-c3ccccc3)o2)c1 |  | inactive: -2.65%
58 | CCCOc1ccc(C(=O)NCC(c2ccco2)N(C)C)cc1 (centres undefined) |  | inactive: 3.33%
59 | COc1ccc(-c2nnc(SCC(=O)NC(C)c3ccccc3)o2)cc1OC (centres undefined) |  | inactive: -20%
60 | Cc1ccccc1-n1c(C)nnc1SCC(=O)NNC(=O)c1ccccc1 | inconclusive [inhibitor, full curve, poor fit] | 
61 | CC(CNc1ccc([N+](=O)[O-])c2cccnc12)Nc1c([N+](=O)[O-])cc(C(F)(F)F)cc1[N+](=O)[O-] (centres undefined) | inconclusive [inhibitor, single point] | 
62 | COc1ccc(NC(=O)COC(=O)/C=C/c2ccc(OC)c(S(=O)(=O)N3CCOCC3)c2)cc1 | inconclusive [inhibitor, full curve, poor fit] | 
63 | CCOC(=O)c1c(NC(=O)c2cc(=O)c3cc(C)cc(C)c3o2)sc(C)c1C |  | inactive: 4.46%
64 | O=C1NC[C@H](Cc2ccccc2)N(CC2CCCCC2)C1=O |  | inactive: 2.87%
65 | C[C@H](NC(=O)OC(C)(C)C)C(=O)N/N=C/c1ccc2nccnc2c1 | inconclusive [inhibitor, single point] | 
66 | COc1ccc(OC)c(C2=NNC(=NCc3ccc4c(c3)OCO4)SC2)c1 | inconclusive [inhibitor, single point] | 
67 | COc1cccc(Cc2nc3ccccc3nc2SCC(=O)N2CCCc3ccccc32)c1 |  | inactive: 17.9%
68 | COc1ccccc1CC(=O)O/N=C(\N)c1cccc([N+](=O)[O-])c1 | inconclusive [inhibitor, full curve, poor fit] | 
69 | O=C(Cc1ccccc1)NCCc1cn2ccsc2n1 | inconclusive [inhibitor, full curve, poor fit] | 
